{"source": "patent US20210060169A1", "about": "(Kyowa Kirin, published 2021)"}
{"target": "T1, human CD25 ECD-Fc-Avitag (human)", "T1 construct": "Extracellular region of human CD25 fused to human IgG1 Fc with C-terminal Avitag; also called hCD25ECD-Fc", "experiment": "SPR (Biacore T-100), receptor-Fc captured by anti-human Fc, IL-2 as analyte, steady state model", "units": {"Kd": "nM"}}
{"binder": "8His-IL-2 (ligand) not shown", "Kd": 15}
{"target": "T2, human CD122 ECD-Fc-Avitag-8His / human CD132 ECD-Fc-FLAG (human)", "T2 construct": "in the assay a heterodimer of the two chains; also called hIL-2RβγECD-Fc; IL-2Rβγ ECD-Fc", "experiment": "SPR (Biacore T-100), receptor-Fc captured by anti-human Fc, IL-2 as analyte, 1:1 binding model", "units": {"Kd": "nM"}}
{"binder": "8His-IL-2 (ligand) not shown", "Kd": 0.209}
{"target": "T3, human IL-2Rαβγ (human, UniProt P01589 22-272; P14784 27-551; P31785 23-369)", "T3 sequence (looked up) 1": "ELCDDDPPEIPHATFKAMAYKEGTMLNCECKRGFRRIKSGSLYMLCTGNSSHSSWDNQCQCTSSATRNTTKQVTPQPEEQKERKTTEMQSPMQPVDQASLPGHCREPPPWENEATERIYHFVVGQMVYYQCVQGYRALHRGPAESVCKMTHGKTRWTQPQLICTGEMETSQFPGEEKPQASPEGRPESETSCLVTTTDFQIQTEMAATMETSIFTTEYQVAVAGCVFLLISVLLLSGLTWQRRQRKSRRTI", "T3 sequence (looked up) 2": "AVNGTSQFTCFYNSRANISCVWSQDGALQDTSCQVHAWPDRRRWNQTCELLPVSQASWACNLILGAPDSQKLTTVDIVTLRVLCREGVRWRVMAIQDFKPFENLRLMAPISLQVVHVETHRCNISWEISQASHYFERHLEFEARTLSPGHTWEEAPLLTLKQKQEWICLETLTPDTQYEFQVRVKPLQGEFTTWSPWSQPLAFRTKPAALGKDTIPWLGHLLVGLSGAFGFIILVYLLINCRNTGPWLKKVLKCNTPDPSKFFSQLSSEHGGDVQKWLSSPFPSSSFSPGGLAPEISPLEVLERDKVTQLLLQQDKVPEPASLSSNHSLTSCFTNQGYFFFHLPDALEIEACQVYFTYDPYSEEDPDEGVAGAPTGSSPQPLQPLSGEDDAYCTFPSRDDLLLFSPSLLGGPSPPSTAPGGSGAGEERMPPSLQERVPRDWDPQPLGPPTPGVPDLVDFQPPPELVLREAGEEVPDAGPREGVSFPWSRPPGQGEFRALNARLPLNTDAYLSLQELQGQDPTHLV", "T3 sequence (looked up) 3": "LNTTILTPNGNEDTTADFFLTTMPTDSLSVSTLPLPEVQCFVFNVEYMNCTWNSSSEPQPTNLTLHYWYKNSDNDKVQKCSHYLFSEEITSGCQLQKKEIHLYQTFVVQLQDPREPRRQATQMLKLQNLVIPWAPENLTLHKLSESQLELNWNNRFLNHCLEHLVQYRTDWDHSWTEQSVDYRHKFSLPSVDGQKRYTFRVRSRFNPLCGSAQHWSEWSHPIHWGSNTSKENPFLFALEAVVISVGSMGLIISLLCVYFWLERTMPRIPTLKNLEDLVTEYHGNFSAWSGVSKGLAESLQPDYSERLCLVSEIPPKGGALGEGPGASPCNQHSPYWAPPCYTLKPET", "experiment": "cell-based or functional assay"}
{"binder": "8His-S4(oAzZK)-PEG4 (ligand, 4: (oAzZK)-PEG4 (DBCO-PEG4-FLAG DYKDDDDK)) not shown", "Standardized EC50 ratio value": "< 5"}
{"binder": "8His-S5(oAzZK)-PEG4 (ligand, 5: (oAzZK)-PEG4 (DBCO-PEG4-FLAG DYKDDDDK)) not shown", "Standardized EC50 ratio value": "< 5"}
{"binder": "8His-S6(oAzZK)-PEG4 (ligand, 6: (oAzZK)-PEG4 (DBCO-PEG4-FLAG DYKDDDDK)) not shown", "Standardized EC50 ratio value": "< 5"}
{"binder": "8His-T7(oAzZK)-PEG4 (ligand, 7: (oAzZK)-PEG4 (DBCO-PEG4-FLAG DYKDDDDK)) not shown", "Standardized EC50 ratio value": "< 5"}
{"binder": "8His-E60(oAzZK)-PEG4 (ligand, 60: (oAzZK)-PEG4 (DBCO-PEG4-FLAG DYKDDDDK)) not shown", "Standardized EC50 ratio value": "< 5"}
{"binder": "8His-F78(oAzZK)-PEG4 (ligand, 78: (oAzZK)-PEG4 (DBCO-PEG4-FLAG DYKDDDDK)) not shown", "Standardized EC50 ratio value": "< 5"}
{"binder": "8His-H79(oAzZK)-PEG4 (ligand, 79: (oAzZK)-PEG4 (DBCO-PEG4-FLAG DYKDDDDK)) not shown", "Standardized EC50 ratio value": "< 5"}
{"binder": "8His-R81(oAzZK)-PEG4 (ligand, 81: (oAzZK)-PEG4 (DBCO-PEG4-FLAG DYKDDDDK)) not shown", "Standardized EC50 ratio value": "< 5"}
{"binder": "8His-L94(oAzZK)-PEG4 (ligand, 94: (oAzZK)-PEG4 (DBCO-PEG4-FLAG DYKDDDDK)) not shown", "Standardized EC50 ratio value": "< 5"}
{"binder": "8His-S99(oAzZK)-PEG4 (ligand, 99: (oAzZK)-PEG4 (DBCO-PEG4-FLAG DYKDDDDK)) not shown", "Standardized EC50 ratio value": "< 5"}
{"binder": "8His-E100(oAzZK)-PEG4 (ligand, 100: (oAzZK)-PEG4 (DBCO-PEG4-FLAG DYKDDDDK)) not shown", "Standardized EC50 ratio value": "< 5"}
{"binder": "8His-T101(oAzZK)-PEG4 (ligand, 101: (oAzZK)-PEG4 (DBCO-PEG4-FLAG DYKDDDDK)) not shown", "Standardized EC50 ratio value": "< 5"}
{"binder": "8His-Q126(oAzZK)-PEG4 (ligand, 126: (oAzZK)-PEG4 (DBCO-PEG4-FLAG DYKDDDDK)) not shown", "Standardized EC50 ratio value": "< 5"}
